Experimental data published in PubChem BioAssay AID1347073 (National Center for Advancing Translational Sciences (NCATS), 2019).
Among all 45,000 compounds or so, about 200 (0.44%) were called active. Roughly 7% stayed inconclusive and do not appear here. Calls follow the shape of the dose curve; as a rule, active = well fitted activation curve with a large enough effect; inconclusive = small, poorly fitted or top-dose-only effect; inactive = no such curve, though single readings can be large or run the other way. Some of the results follow.

assay: qHTS of TDP-43 Inhibitors: NCGC Sytravon Library Screen; conditions: yeast TDP-43 toxicity rescue, BacTiter-Glo growth, 24 h; series mostly up to 46.1 µM; growth rescue (activation): at the top concentration; also: nearly all actives have a fitted effect of over 55% in size; as to growth rescue (activation): 0% is about no effect
Summary of the method: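 TDP-43-expressing yeast, pregrown in raffinose, seeded at OD600 0.02 in galactose medium with compound for 24 hr at 30 deg C. Growth read by BacTiter-Glo luminescence, so rescue of toxicity appears as activation.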
Potency is read from the fitted curve at half-maximal effect.

Row | SMILES | growth rescue (activation) | Potency
1 | Cc1cccc(C(=O)Nc2cccc(C(=O)N/N=C/c3cccc(C)n3)c2)c1 | inactive: 5.41% | –
2 | COc1cccc(-c2cnc3c(NC(C)=O)cc(-c4cccc(C(=O)NCCO)c4)cn23)c1 | inactive: -8.75% | –
3 | O=C(c1ccc(S(=O)(=O)NCc2ccco2)cc1)N1CCN(c2ccccc2)CC1 | inactive: -9.94% | –
4 | O=C(O)c1ccc(Nc2nc(-c3ccccc3)c3cc(Br)ccc3n2)cc1 | inactive: 3.87% | –
5 | O=C(Nc1ccccc1Cl)c1c(F)c(F)c(F)c(F)c1F | inactive: 22.1% | –
6 | CCC1CCCCN1C(=O)COC(=O)c1cc(Br)ccc1Cl (configuration not stated) | inactive: 20.8% | –
7 | COc1ccc(CCC(=O)NCC2CCCCC2)cc1OC | inactive: -7.06% | –
8 | COc1ccc(C(=O)NNC(=O)C(=O)Nc2ccc(C)c(Cl)c2)cc1 | inactive: -5.98% | –
9 | CC(=O)c1cccc(-c2ccnc3c2CC(C(=O)Nc2cccc(OC(F)(F)F)c2)O3)c1 (configuration not stated) | – | active: 22.4 µM
10 | O=C(NCCc1ccco1)c1ccc(OCc2cn3ccccc3n2)cc1 | inactive: 4.47% | –
11 | Cc1c(Cl)cccc1NC(=S)NCCc1ccc(S(N)(=O)=O)cc1 | inactive: -1.87% | –
12 | CCc1nc(SCC(=O)Nc2ccc(N(CC)CC)cc2)n[nH]1 | inactive: 5.74% | –
13 | COc1ccc(Cl)cc1NC(=O)c1cc(-c2ccc(C)cc2O)n[nH]1 | inactive: 12.5% | –
14 | Nc1nnc(SCC(=O)OCC(=O)c2ccccc2)s1 | inactive: 10% | –
15 | CN1CCN(NC(=O)c2cc(S(=O)(=O)N3CCOCC3)c(Cl)cc2Cl)CC1 | inactive: 13.8% | –
16 | COc1ccc(-c2csc(NC(=O)c3ccccc3NS(=O)(=O)c3ccc(F)c(F)c3)n2)cc1 | inactive: -0.52% | –
17 | CCCCCn1c(=O)[nH]c2cc(C(=O)N3CCN(C(=O)OCC)CC3)ccc2c1=O | inactive: -5.87% | –
18 | COc1c(C)cccc1C(=O)NCCCNC(=O)c1ccc(C)nc1 | inactive: 8.05% | –
19 | COCCN(Cc1cc2ccc(C)c(C)c2nc1Cl)C(=O)N1CCOCC1 | inactive: 6.74% | –
20 | CCc1nc2ccc(C(=O)NCCCN3CCCC3=O)cn2c1N(C)C(=O)c1cccc(OC)c1 | inactive: -7.92% | –
21 | O=C(O/N=C1\CCS(=O)(=O)c2sccc21)C1CC1 | inactive: 5.4% | –
22 | CN(C)/C=C1\NC(=S)N(c2ccccc2)C1=O | inactive: -6.24% | –
23 | CCCS(=O)(=O)NC(=O)C1(C)CCN(C(=O)CSc2ccccc2)C1 (configuration not stated) | inactive: 3.13% | –

Row | SMILES | growth rescue (activation) | Potency
24 | O=C(NCc1ccccn1)C(=O)NN=C1CCCCCCCCCCC1 | inactive: 9.63% | –
25 | C/C(=N\Nc1ncnc2sc(C)c(C)c12)c1ccccn1 | inactive: -89.6% | –
26 | Cc1ccnc(NC2CCCCC2)c1 | inactive: -4.6% | –
27 | Cc1ccc(OCC(=O)O/N=C(\N)c2ccncc2)c(C)c1 | inactive: 28.2% | –
28 | COc1ccc(NC(=O)N2CCCC2C(=O)Nc2ccccc2F)cc1 (configuration not stated) | inactive: 12.1% | –
29 | C=CCn1cnc2scc(-c3ccc(OC)cc3)c2c1=O | inactive: 10.4% | –
30 | O=C(CCc1nc2ccccc2c(=O)[nH]1)OCCOc1ccc(Cl)cc1 | inactive: 9.29% | –
31 | CCOc1ccc(-c2cc(C(=O)OC)nc3c2c(=O)n(C)c(=O)n3C)cc1 | inactive: -2.64% | –
32 | CCC(C)NC(=O)CCC(=O)Nc1ccc2nc(N3CC(C)CC(C)C3)cc(C)c2c1 (configuration not stated) | inactive: 0.962% | –
33 | COCCCn1c(=O)/c(=C\c2ccc(OC(F)F)c(OC)c2)s/c1=C(/C#N)C(=O)NCCOC | inactive: 25.2% | –
34 | CC(=O)Nc1ccc(NC(=O)C2Cc3c(-c4ccc5c(c4)OCO5)ccnc3O2)cc1 (configuration not stated) | inactive: 8.27% | –
35 | CCCOCC(O)CC(CC)C(=O)NNC(=S)Nc1ccccc1 (configuration not stated) | inactive: -4.04% | –
36 | CCC1(CC)NC(=O)N(CC(=O)Nc2ccc(C)cc2C)C1=O | inactive: 0.404% | –
37 | S=C(NC1CCCC1)N1CCN(c2ncccn2)CC1 | inactive: 13.4% | –
38 | CCOc1ccc(NC(=O)C2CCCN(c3nc(C)cc(C)n3)C2)cc1 (configuration not stated) | inactive: 13.7% | –
39 | CCOc1ccccc1NC(=O)NC1(C(=O)NCc2cccnc2)CCCCC1 | inactive: 11.3% | –
40 | Cc1ccc2nc(NCC(=O)NN)nc(-c3ccccc3)c2c1 | inactive: 19.5% | –
41 | Cc1ccc(S(=O)(=O)C2(S(=O)(=O)c3ccc(C)cc3)CCCC2)cc1 | inactive: 27.1% | –
42 | CCN(c1ccccc1)S(=O)(=O)c1ccc(Oc2ccccc2C(C)=O)nc1 | inactive: 21.1% | –
43 | COc1ccc(OC)c2c1cc(C(=O)N[C@H](C(=O)N1CCC(C(=O)O)CC1)C(C)C)n2C | inactive: -5.01% | –
44 | O=C(NCCc1ccccc1)/C(=C\c1ccc([N+](=O)[O-])cc1)NC(=O)c1ccccc1 | inactive: 36.3% | –
45 | Cc1nc(N2CCC(C)CC2)c2c(C)c(C(=O)Nc3ccc(C)c(F)c3)sc2n1 | inactive: 14.2% | –
46 | CCOC(=O)c1ccccc1Nc1cc(C)nc2nc(-c3ccco3)nn12 | inactive: 24.1% | –

Row | SMILES | growth rescue (activation) | Potency
47 | Cc1csc(NC(=O)c2ccc(-c3ccc(Cl)cc3Cl)o2)n1 | inactive: 5.62% | –
48 | CCn1ccnc1CNC(=O)CC1C(=O)NCCN1Cc1ccccc1F (configuration not stated) | inactive: -10.2% | –
49 | COc1cc(NS(=O)(=O)c2cc(C(=O)NCCc3ccccn3)ccc2OC)cc(OC)c1 | inactive: 11.2% | –
50 | CCn1c(SCC(=O)N=Nc2c(O)[nH]c3ccccc23)nc2ccccc21 | inactive: -2.91% | –
51 | COc1cccc(N2CCN(c3c(C#N)c(C(F)(F)F)nn3C)CC2)c1 | inactive: 29.6% | –
52 | O=C1NN(c2ccccc2)C(=O)/C1=C/c1ccc(-c2cccc(C(=O)O)c2)o1 | inactive: -11.2% | –
53 | COc1ccc(CN(CC(=O)NC2CCCC2)C(=O)c2csnn2)cc1 | inactive: 15.7% | –
54 | CCCc1nnc(SCC(=O)N2CCCC(C)C2)n1CCOC (configuration not stated) | inactive: 1.42% | –
55 | Cc1nnc(SCC(=O)N(C)c2ccccc2)n1Cc1ccccc1 | inactive: 0.353% | –
56 | O=C(c1ccc(OC2CCN(C(=O)c3cccnc3)CC2)cc1)N1CCCCCC1 | inactive: 2.99% | –
57 | CC(C)Oc1cc(F)ccc1-c1cc(C(=O)Nc2ccccc2)[nH]n1 | inactive: -0.934% | –
58 | O=C(C1CCCO1)N1CCN(C(=S)Nc2ccc(Cl)c(Cl)c2)CC1 (configuration not stated) | inactive: 2.37% | –
59 | COc1ccc(-c2cc(C(F)(F)F)n3nc(C(=O)O)c(Cl)c3n2)cc1OC | inactive: 11.2% | –
60 | CC(C)C(c1nnnn1CCc1ccccc1)N1CCN(C(=O)c2ccco2)CC1 (configuration not stated) | inactive: 31.9% | –
61 | COc1cccc(CNC(=O)C2CCN(S(=O)(=O)c3ccc(C)cc3)CC2)c1 | inactive: -0.37% | –
62 | CCc1c(C)nc2nc(SCc3ccccc3)[nH]n2c1=O | inactive: -4.62% | –
63 | CCN(CC)S(=O)(=O)N1CCC(C(=O)NCCC2=CCCCC2)CC1 | inactive: 15.7% | –
64 | Cn1cc(CN2CCC(n3nccc3NC(=O)c3ccccc3Cl)CC2)cn1 | inactive: 3.19% | –
65 | CC(C)CNC(=O)CN1C(=O)NC2(CCCc3ccccc32)C1=O (configuration not stated) | inactive: -2.87% | –
66 | COc1ccc(CN2CCCC(C(=O)c3ccc(SC)cc3)C2)cc1Cn1cccn1 (configuration not stated) | inactive: 5.69% | –
67 | Cc1cc(=O)n2nc(N3CCCC3C(=O)NCCCN3CCCCC3)sc2n1 (configuration not stated) | inactive: 3.75% | –
